# Assay results from the supplement of paper PMC8728848.
# This is one part of the list.
# B1: Arath Fbox (Arabidopsis thaliana), NP_178341.1 (protein)
# chain: EFTWGRKRRVKSESSPFDSFPEDCISYIISFTNPRDACVAATVSKTFESTVKSDIIWEKFLPADYESLIPPSRVFSSKKELYFSLCNDPVLFDDDKKSVWLEKASGKRCLMLSAMNLSIIWGDNPQYWQWIPIPESRFEKVAKLRDVCWFEIRGRTNTRVLSPRTRYSAYIVFKGVDKCYGFQNVAIEAAVGVVGQEPSRRLICFSEAIRRGRRNVVKPKQREDGWMEIELGEFFNDGGIMDNDEIEMSALETKQLNRKCGLIIQGIEIRPAKILAAAAASFLEQKLISEEDLNSAVDHHHHHH
# Key:
# Assay in all cases: glycan array binding signal (z-score within array); higher = stronger binding
# Settings in all cases: glycan notation: IUPAC condensed, linker removed
# Gal(a1-3)GalNAc = molecular target: Gal(a1-3)GalNAc
# Outline: (§1)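 The Consortium for Functional Glycomics database supplied 3228 glycan arrays, of which those lacking an available protein sequence were dropped. The binding signal, a within-array Z-score, was averaged across arrays of the same protein sequence and across linkers. Negative scores can be read as non-binding.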
# [1] = molecular target: Gal(a1-3)[Gal(a1-4)]Gal(b1-4)GlcNAc
# Outline: as §1
# [2] = molecular target: Gal(a1-4)Gal(b1-3)GlcNAc(b1-2)Man(a1-3)[Gal(a1-4)Gal(b1-3)GlcNAc(b1-2)Man(a1-6)]Man(b1-4)GlcNAc(b1-4)GlcNAc
# Outline: as §1
# Gal(a1-4)Gal(b1-4)Glc = molecular target: Gal(a1-4)Gal(b1-4)Glc
# Outline: as §1
# Gal(a1-4)Gal(b1-4)GlcNAc = molecular target: Gal(a1-4)Gal(b1-4)GlcNAc
# Outline: as §1
# [3] = molecular target: Gal(a1-4)Gal(b1-4)GlcNAc(b1-2)Man(a1-3)[Gal(a1-4)Gal(b1-4)GlcNAc(b1-2)Man(a1-6)]Man(b1-4)GlcNAc(b1-4)GlcNAc
# Outline: as §1
# [4] = molecular target: Gal(a1-4)Gal(b1-4)GlcNAc(b1-3)Gal(b1-4)Glc
# Outline: as §1
# Gal(a1-4)GlcNAc = molecular target: Gal(a1-4)GlcNAc
# Outline: as §1
# Gal(a1-6)Glc = molecular target: Gal(a1-6)Glc
# Outline: as §1
# Gal(b1-2)Gal = molecular target: Gal(b1-2)Gal
# Outline: as §1
# Gal(b1-3)Gal = molecular target: Gal(b1-3)Gal
# Outline: as §1
# Gal(b1-3)Gal(b1-4)GlcNAc = molecular target: Gal(b1-3)Gal(b1-4)GlcNAc
# Outline: as §1
# Gal(b1-3)GalNAc = molecular target: Gal(b1-3)GalNAc
# Outline: as §1
# [5] = molecular target: Gal(b1-3)GalNAc(a1-3)[Fuc(a1-2)]Gal(b1-4)Glc
# Outline: as §1
# [6] = molecular target: Gal(b1-3)GalNAc(a1-3)[Fuc(a1-2)]Gal(b1-4)GlcNAc
# Outline: as §1
# Gal(b1-3)GalNAc(b1-3)Gal = molecular target: Gal(b1-3)GalNAc(b1-3)Gal
# Outline: as §1
# [7] = molecular target: Gal(b1-3)GalNAc(b1-3)Gal(a1-4)Gal(b1-4)Glc
# Outline: as §1
# [8] = molecular target: Gal(b1-3)GalNAc(b1-4)Gal(b1-4)Glc
# Outline: as §1
# [9] = molecular target: Gal(b1-3)GalNAc(b1-4)[Neu5Ac(a2-3)]Gal(b1-4)Glc
# Outline: as §1
# Gal(b1-3)GlcNAc = molecular target: Gal(b1-3)GlcNAc
# Outline: as §1
# [10] = molecular target: Gal(b1-3)GlcNAc(a1-3)Gal(b1-4)GlcNAc
# Outline: as §1
# [11] = molecular target: Gal(b1-3)GlcNAc(a1-6)Gal(b1-4)GlcNAc
# Outline: as §1
# Gal(b1-3)GlcNAc(b1-2)Man = molecular target: Gal(b1-3)GlcNAc(b1-2)Man
# Outline: as §1
# [12] = molecular target: Gal(b1-3)GlcNAc(b1-2)Man(a1-3)[Gal(b1-3)GlcNAc(b1-2)Man(a1-6)]Man(b1-4)GlcNAc(b1-4)GlcNAc
# Outline: as §1
# [13] = molecular target: Gal(b1-3)GlcNAc(b1-2)Man(a1-3)[Gal(b1-3)GlcNAc(b1-2)Man(a1-6)]Man(b1-4)GlcNAc(b1-4)[Fuc(a1-6)]GlcNAc
# Outline: as §1
# [14] = molecular target: Gal(b1-3)GlcNAc(b1-2)Man(a1-3)[GlcNAc(b1-4)][Gal(b1-3)GlcNAc(b1-2)Man(a1-6)]Man(b1-4)GlcNAc(b1-4)GlcNAc
# Outline: as §1
# [15] = molecular target: Gal(b1-3)GlcNAc(b1-2)[Gal(b1-3)GlcNAc(b1-6)]Man(a1-6)[Gal(b1-3)GlcNAc(b1-2)Man(a1-3)]Man(b1-4)GlcNAc(b1-4)GlcNAc
# Outline: as §1
# [16] = molecular target: Gal(b1-3)GlcNAc(b1-3)Gal(b1-3)GlcNAc
# Outline: as §1
# [17] = molecular target: Gal(b1-3)GlcNAc(b1-3)Gal(b1-4)Glc
# Outline: as §1
# [18] = molecular target: Gal(b1-3)GlcNAc(b1-3)Gal(b1-4)GlcNAc
# Outline: as §1
# [19] = molecular target: Gal(b1-3)GlcNAc(b1-3)Gal(b1-4)GlcNAc(b1-2)Man(a1-3)[Gal(b1-3)GlcNAc(b1-3)Gal(b1-4)GlcNAc(b1-2)Man(a1-6)]Man(b1-4)GlcNAc(b1-4)GlcNAc
# Outline: as §1
# [20] = molecular target: Gal(b1-3)GlcNAc(b1-3)Gal(b1-4)GlcNAc(b1-2)[Gal(b1-3)GlcNAc(b1-3)Gal(b1-4)GlcNAc(b1-6)]Man(a1-6)[Gal(b1-3)GlcNAc(b1-3)Gal(b1-4)GlcNAc(b1-2)Man(a1-3)]Man(b1-4)GlcNAc(b1-4)[Fuc(a1-6)]GlcNAc
# Outline: as §1
# [21] = molecular target: Gal(b1-3)GlcNAc(b1-3)Gal(b1-4)GlcNAc(b1-3)Gal(b1-4)GlcNAc(b1-2)[Gal(b1-3)GlcNAc(b1-3)Gal(b1-4)GlcNAc(b1-3)Gal(b1-4)GlcNAc(b1-6)]Man(a1-6)[Gal(b1-3)GlcNAc(b1-3)Gal(b1-4)GlcNAc(b1-3)Gal(b1-4)GlcNAc(b1-2)Man(a1-3)]Man(b1-4)GlcNAc(b1-4)[Fuc(a1-6)]GlcNAc
# Outline: as §1
# [22] = molecular target: Gal(b1-3)GlcNAc(b1-3)Gal(b1-4)GlcNAc(b1-6)[Gal(b1-3)GlcNAc(b1-3)]Gal(b1-4)Glc
# Outline: as §1
# [23] = molecular target: Gal(b1-3)GlcNAc(b1-3)Gal(b1-4)[Fuc(a1-3)]GlcNAc
# Outline: as §1
# [24] = molecular target: Gal(b1-3)GlcNAc(b1-3)Gal(b1-4)[Fuc(a1-3)]GlcNAc(b1-6)[Gal(b1-3)GlcNAc(b1-3)]Gal(b1-4)Glc
# Outline: as §1
# [25] = molecular target: Gal(b1-3)GlcNAc(b1-3)GalNAc
# Outline: as §1
# [26] = molecular target: Gal(b1-3)GlcNAc(b1-6)Gal(b1-4)GlcNAc
# Outline: as §1
binder,measurement,setting,value
B1,glycan array binding signal (z-score),Gal(a1-3)GalNAc,-0.233
same,glycan array binding signal (z-score),[1],1.48
same,glycan array binding signal (z-score),[2],2.49
same,glycan array binding signal (z-score),Gal(a1-4)Gal(b1-4)Glc,0.185
same,glycan array binding signal (z-score),Gal(a1-4)Gal(b1-4)GlcNAc,0.523
same,glycan array binding signal (z-score),[3],0.198
same,glycan array binding signal (z-score),[4],-0.37
same,glycan array binding signal (z-score),Gal(a1-4)GlcNAc,-0.661
same,glycan array binding signal (z-score),Gal(a1-6)Glc,0.448
same,glycan array binding signal (z-score),Gal(b1-2)Gal,0.344
same,glycan array binding signal (z-score),Gal(b1-3)Gal,-0.692
same,glycan array binding signal (z-score),Gal(b1-3)Gal(b1-4)GlcNAc,1.16
same,glycan array binding signal (z-score),Gal(b1-3)GalNAc,-0.086
same,glycan array binding signal (z-score),[5],-0.148
same,glycan array binding signal (z-score),[6],-0.124
same,glycan array binding signal (z-score),Gal(b1-3)GalNAc(b1-3)Gal,-0.739
same,glycan array binding signal (z-score),[7],0.603
same,glycan array binding signal (z-score),[8],0
same,glycan array binding signal (z-score),[9],0.28
same,glycan array binding signal (z-score),Gal(b1-3)GlcNAc,-0.544
same,glycan array binding signal (z-score),[10],0.017
same,glycan array binding signal (z-score),[11],0.001
same,glycan array binding signal (z-score),Gal(b1-3)GlcNAc(b1-2)Man,0.065
same,glycan array binding signal (z-score),[12],0.363
same,glycan array binding signal (z-score),[13],3.36
same,glycan array binding signal (z-score),[14],-0.473
same,glycan array binding signal (z-score),[15],-0.358
same,glycan array binding signal (z-score),[16],0
same,glycan array binding signal (z-score),[17],-0.779
same,glycan array binding signal (z-score),[18],-0.611
same,glycan array binding signal (z-score),[19],-0.301
same,glycan array binding signal (z-score),[20],1.03
same,glycan array binding signal (z-score),[21],0.825
same,glycan array binding signal (z-score),[22],-0.587
same,glycan array binding signal (z-score),[23],-0.717
same,glycan array binding signal (z-score),[24],-0.689
same,glycan array binding signal (z-score),[25],0.427
same,glycan array binding signal (z-score),[26],-0.411
